Assay results from PubChem BioAssay AID588591 (National Center for Advancing Translational Sciences (NCATS), 2011).
About 4,700 (1.2%) of roughly 390,000 compounds were called active. The shares of active, inactive and inconclusive entries below differ from those in the screen. Calls come from the whole dose curve; as a rule, active = well fitted inhibition curve with a large enough effect; inconclusive = small, poorly fitted or top-dose-only effect, or another doubt; inactive = no such curve, though single readings can be large or run the other way. Potencies beside an inconclusive call are fits to weak or partial responses and may not hold up.
% is set by controls: 0 for no effect and ±100 for the full control effect; potency is the fitted concentration of half-maximal effect; tags give direction and shape of the fitted curve.

Each compound was assayed against DNA polymerase eta (Homo sapiens) (UniProt Q9Y253) (assay: qHTS for Inhibitors of Polymerase Eta). Conditions: recombinant Pol eta, fluorescent DNA replication assay; series mostly up to 114 µM; activity change, negative = inhibition: at the top concentration.
Chain of UniProt Q9Y253 (Q9Y253 whole entry, looked up): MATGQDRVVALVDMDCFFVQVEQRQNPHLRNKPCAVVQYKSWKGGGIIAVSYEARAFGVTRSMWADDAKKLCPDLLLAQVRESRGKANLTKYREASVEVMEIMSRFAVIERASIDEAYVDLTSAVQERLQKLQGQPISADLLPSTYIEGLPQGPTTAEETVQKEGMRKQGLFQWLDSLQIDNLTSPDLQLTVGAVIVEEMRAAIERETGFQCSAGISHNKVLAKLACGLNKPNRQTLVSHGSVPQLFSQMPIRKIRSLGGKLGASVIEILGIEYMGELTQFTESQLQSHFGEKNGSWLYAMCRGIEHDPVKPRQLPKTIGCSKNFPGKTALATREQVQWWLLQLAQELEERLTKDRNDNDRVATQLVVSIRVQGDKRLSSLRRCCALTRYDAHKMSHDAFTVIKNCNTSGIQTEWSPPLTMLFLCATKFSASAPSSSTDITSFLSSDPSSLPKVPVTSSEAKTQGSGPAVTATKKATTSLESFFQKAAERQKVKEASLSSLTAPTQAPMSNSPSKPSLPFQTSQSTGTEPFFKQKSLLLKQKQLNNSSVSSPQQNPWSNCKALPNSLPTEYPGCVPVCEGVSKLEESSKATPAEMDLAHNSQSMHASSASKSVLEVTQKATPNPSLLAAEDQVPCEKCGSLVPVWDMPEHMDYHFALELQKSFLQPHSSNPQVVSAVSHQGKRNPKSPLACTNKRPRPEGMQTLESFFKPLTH
Summary of the method: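 Fluorescent replication assay: 50 nM final substrate added after a 15 min room-temperature compound preincubation with 10 nM enzyme. Signal taken at 0 min and again at 10 min.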
With CCOc1ccc(NC(=O)CN(C)C(=O)c2c(C)nn(-c3ccccc3)c2Cl)cc1OCC the “activity change, negative = inhibition” value was inactive: -11.9%.
In the case of O=C1CSC(=S)N1/N=C/c1cc(Br)c(O)c(Br)c1, the Potency is reported as active: 11.2 µM.
O=C(Nc1nnc(S(=O)(=O)N2CCCc3ccccc32)s1)c1cccc(F)c1 was tested, and the Potency was active: 50.1 µM.
For O=C1/C(=C\c2ccccc2)CN(C(=O)CCN2CCCCC2)C/C1=C/c1ccccc1, the Potency was inconclusive: 25.1 µM [inhibitor, partial curve].
CCOC(=O)c1ccccc1NC(=O)COC(=O)CCCOc1ccccc1 was tested, and the “activity change, negative = inhibition” value was inactive: -5.58%.
For CC(C)(C)c1ccc(S(=O)(=O)c2cn(CC(=O)Nc3ccccc3)c3ccccc3c2=O)cc1, the Potency was inconclusive: 79.4 µM [inhibitor, partial curve, poor fit].
For O=C(COC(=O)c1ccc(S(=O)(=O)N2CCCCC2)cc1)NCc1ccco1, the Potency was inconclusive: 79.4 µM [inhibitor, single point].
For Cc1cc(C(=O)NC2CCCN(Cc3ccc(Cl)cc3)C2)c(C)o1 (stereo unspecified), the “activity change, negative = inhibition” value was inactive: -15.1%.
With CCN1CCN(c2ccc(S(=O)(=O)N3CCCCC3)cc2NC(=O)COc2ccccc2)CC1 the Potency was inconclusive: 89.1 µM [inhibitor, partial curve, poor fit].
With CCc1c(C)[nH]n(-c2ccc(Oc3ccccc3)c(S(=O)(=O)O)c2)c1=O the Potency was active: 11.2 µM.
CN1/C(=C/C=C(C#N)C#N)C(C)(C)c2ccccc21 was tested, and the Potency was inconclusive: 31.6 µM [inhibitor, full curve].
O=C(NCc1ccco1)c1c(F)c(F)c(F)c(C(=O)NCc2ccco2)c1F was tested, and the Potency was active: 44.7 µM.
With O=c1[nH]nc(-c2ccccc2)cc1-c1ccccc1 the “activity change, negative = inhibition” value was inactive: -13.2%.
With CC(=O)c1ccc(S(=O)(=O)N2CCNC(=O)C2)cc1 the Potency was active: 22.4 µM.
In the case of CC1CCCc2sc3nc(NCc4ccco4)n4ncnc4c3c21 (stereo unspecified), the Potency is reported as inconclusive: 25.1 µM [inhibitor, single point].
In the case of CCN(CC)c1ccc(C(=O)NNC(=O)c2ccc3c(=O)n4c(nc3c2)CCC4)cc1, the Potency is reported as inconclusive: 22.4 µM [inhibitor, full curve, poor fit].
In the case of O=C(Cn1c(=O)oc2ccccc21)Nc1nc(-c2ccc(Br)cc2)cs1, the Potency is reported as inconclusive: 25.1 µM [inhibitor, single point].
With CN(C)c1ccc(C2C=C(c3ccccc3)Nc3nnnn32)cc1 (stereo unspecified) the “activity change, negative = inhibition” value was inactive: 4.64%.
In the case of O=c1oc2cc(O)ccc2c2oc3cc(O)ccc3c12, the Potency is reported as inconclusive: 79.4 µM [inhibitor, single point].
Cc1ccc(OCC(=O)c2cc(C)c(C)cc2C)c([N+](=O)[O-])n1 was tested, and the Potency was inconclusive: 35.5 µM [inhibitor, single point].
With CCc1ccc(NC(=O)Cn2nnc(C(=O)NCc3ccc(C)cc3)c2N)cc1 the “activity change, negative = inhibition” value was inactive: -13.6%.
In the case of C#CCOc1ccc(/C=C2/C(=O)N(c3cccc(C(=O)O)c3)N=C2C)cc1OC, the Potency is reported as active: 50.1 µM.
For OCC1OC(n2cnc3c(/C=C(\O)c4ccccc4)ncnc32)C(O)C1O (stereo unspecified), the Potency was inconclusive: 89.1 µM [inhibitor, partial curve, poor fit].
With O=C1Nc2cc3c(cc2C1=O)sc1ccccc13 the Potency was active: 44.7 µM.
For CCCCCOC(=O)C1C(c2ccccc2)C(C(=O)O)C1c1ccccc1 (stereo unspecified), the “activity change, negative = inhibition” value was inactive: -5.06%.
CCC(CC)C1=NN2C(=N)/C(=C/c3ccc(OC(=O)c4ccco4)cc3)C(=O)N=C2S1 was tested, and the “activity change, negative = inhibition” value was inactive: -6.24%.
CSc1nc(C)c2c(n1)N(c1ccc(O)cc1)CC2 was tested, and the Potency was active: 35.5 µM.
For Cc1c(C(=O)OC2CCCCC2)[nH]c2c1C(=O)CC(C)(C)C2, the Potency was inconclusive: 28.2 µM [inhibitor, partial curve, poor fit].
For COc1ccc(CC(=O)NC2CC(=O)N(c3cccc(F)c3)C2)cc1OC (stereo unspecified), the “activity change, negative = inhibition” value was inactive: -17.7%.
C=CS(=O)(=O)c1ccc(Oc2ccc(S(=O)(=O)C=C)cc2)cc1 was tested, and the Potency was inconclusive: 20 µM [inhibitor, full curve].
For CCn1cc(Cl)c(C(=O)N2N=C(c3ccc4ccccc4c3)CC2c2ccccc2O)n1 (stereo unspecified), the Potency was inconclusive: 39.8 µM [inhibitor, partial curve, poor fit].
O=C(Nc1ccncc1)c1ccc(Br)cc1 was tested, and the “activity change, negative = inhibition” value was inactive: -1.77%.
CN(C(=O)CSc1nncn1-c1ccccc1)c1ccccc1 was tested, and the “activity change, negative = inhibition” value was inactive: -20.9%.
O=C1/C(=C/c2ccncc2)CCC/C1=C\c1ccncc1 was tested, and the Potency was active: 44.7 µM.
CCOc1ccc2oc(C(=O)N(CC)CC(=O)Nc3c(F)cccc3F)c(C)c2c1 was tested, and the Potency was inconclusive: 17.8 µM [inhibitor, partial curve, poor fit].
With COc1ccc(-n2nc3c(N4CCCC(C(=O)NCc5ccc(C)cc5)C4)nnc(C)c3c2C)cc1 (stereo unspecified) the Potency was inconclusive: 89.1 µM [inhibitor, single point].
With O=C1OC(c2cccs2)=N/C1=C/c1ccc(-c2cccc(C(=O)O)c2)o1 the Potency was active: 14.1 µM.
With O=C(Nc1ccc2oc(=O)ccc2c1)c1ccc(-c2ccccc2[N+](=O)[O-])o1 the Potency was inconclusive: 15.8 µM [inhibitor, full curve].
For COc1cccc2cc(-c3csc(CCn4nc(C)cc4C)n3)c(=O)oc12, the Potency was inconclusive: 25.1 µM [inhibitor, partial curve].
Cn1cccc1CC(=O)N/N=C/C=C/c1ccco1 was tested, and the Potency was inconclusive: 17.8 µM [inhibitor, full curve, poor fit].
In the case of C=CCOc1ccc(Br)cc1/C=C1/SC(=Nc2ccc(C(=O)O)cc2)NC1=O, the Potency is reported as active: 20 µM.
With COc1ccc(CNC(=O)c2ccc3nc(CCc4ccccc4)oc3c2)cc1OC the “activity change, negative = inhibition” value was inactive: -9.05%.
For CCN=c1scc(C)n1/N=C/c1cc(Br)c(O)c(Br)c1, the Potency was inconclusive: 79.4 µM [inhibitor, partial curve].
CCN(CC)S(=O)(=O)c1ccc(Cl)c(C(=O)Nc2ccc(Cl)cc2[N+](=O)[O-])c1 was tested, and the Potency was inconclusive: 15.8 µM [inhibitor, full curve, poor fit].
With COC(=O)c1sc(N2CCN(c3ccc(Cl)cc3)CC2)nc1N the Potency was inconclusive: 3.16 µM [inhibitor, full curve, poor fit].
For O=C(NCCCO)c1ccc2nc(-c3ccco3)c(-c3ccco3)nc2c1, the Potency was active: 7.94 µM.
For NC(N)=NS(=O)(=O)c1ccc(NC(=S)NC(=O)/C=C/c2ccco2)cc1, the “activity change, negative = inhibition” value was inactive: -19.9%.
In the case of O=C(N/N=C/c1c(O)n(-c2ccccc2Cl)c(=O)c2ccccc12)C1COc2ccccc2O1 (stereo unspecified), the “activity change, negative = inhibition” value is reported as inactive: -15.1%.
Cn1c(=S)n(/N=C/c2cccs2)c2ccccc21 was tested, and the Potency was inconclusive: 79.4 µM [inhibitor, partial curve, poor fit].
With Cc1cc(C)nc(NC(=O)c2ccc(Br)cc2)n1 the Potency was inconclusive: 89.1 µM [inhibitor, partial curve, poor fit].
CCn1c(SCC(=O)N/N=C/C=C/c2ccco2)nc2ccccc21 was tested, and the Potency was active: 50.1 µM.
In the case of COCCCNC(=O)c1c(N)n(/N=C/c2cccs2)c2nc3ccccc3nc12, the Potency is reported as inconclusive: 28.2 µM [inhibitor, partial curve, poor fit].
CN(CC(=O)Nc1ccc(Cl)c(C(F)(F)F)c1)C(=O)c1cc(-c2ccncc2)nc2ccccc12 was tested, and the Potency was inconclusive: 79.4 µM [inhibitor, partial curve].
With Brc1cccc(-c2nnc(CN3CCN(c4ccccn4)CC3)o2)c1 the “activity change, negative = inhibition” value was inactive: 3.93%.
For CC(=O)Nc1nc2n(n1)C(c1ccc(F)cc1)C=C(c1ccccc1)N2 (stereo unspecified), the Potency was inconclusive: 28.2 µM [inhibitor, single point].
With CCOP(=O)(c1ccccc1)C(O)c1ccc(F)cc1 (stereo unspecified) the “activity change, negative = inhibition” value was inactive: -13.8%.
For CCC(=O)Nc1cccc(C(=O)/C=C/c2ccccc2)c1, the Potency was inconclusive: 31.6 µM [inhibitor, single point].
Cc1nc(SCC(=O)NC(=O)NCCC(C)C)c2c(-c3cccs3)csc2n1 was tested, and the Potency was inconclusive: 89.1 µM [inhibitor, partial curve, poor fit].
In the case of CC(=O)/C(=C/c1ccccc1)C(=O)Nc1ccccc1C, the “activity change, negative = inhibition” value is reported as inactive: -1.35%.
With CN(CC(=O)Nc1ccc(F)c(F)c1F)C(=O)/C=C/c1ccco1 the Potency was inconclusive: 44.7 µM [inhibitor, partial curve].
CCOc1ccccc1NC(=O)/C=C/c1ccccc1[N+](=O)[O-] was tested, and the Potency was inconclusive: 28.2 µM [inhibitor, partial curve, poor fit].
In the case of CCOC(=O)c1ccc(NC(=O)CCC(=O)N2Cc3ccccc3Oc3ncccc32)cc1, the “activity change, negative = inhibition” value is reported as inactive: -5.79%.
COc1ccccc1NC(=O)C/C(N)=N/OCC(=O)Nc1cccc(Cl)c1 was tested, and the Potency was inconclusive: 3.98 µM [inhibitor, partial curve, poor fit].
With Cc1ccc(C(=O)CSc2cc(C)[nH]c(=O)n2)cc1 the Potency was inconclusive: 15.8 µM [inhibitor, full curve, poor fit].
COC(=O)C1=C(C)N(CCCC(=O)O)C(=O)NC1c1cc2c(cc1[N+](=O)[O-])OCO2 (stereo unspecified) was tested, and the Potency was active: 50.1 µM.
In the case of Cc1nn(-c2ccccc2)c(C)c1/C=N/n1c(-c2ccc(Cl)cc2)n[nH]c1=S, the Potency is reported as inconclusive: 31.6 µM [inhibitor, single point].
In the case of O=C(COc1ccc(Cl)cc1Cl)NCC(=O)N/N=C/c1c[nH]c2ccccc12, the Potency is reported as inconclusive: 20 µM [inhibitor, partial curve, poor fit].
For COc1cccc(-c2nnc3sc(-c4ccccn4)nn23)c1, the Potency was inconclusive: 15.8 µM [inhibitor, partial curve, poor fit].
For CCCOCC(O)CCc1n[nH]c(=S)n1-c1ccccc1 (stereo unspecified), the “activity change, negative = inhibition” value was inactive: 7.5%.
With CC(=O)Nc1ccc(NC(=O)COC(=O)c2ccc(S(=O)(=O)NCc3ccco3)cc2)cc1 the “activity change, negative = inhibition” value was inactive: -6.89%.
For Cc1nn2c(=O)cc(COC(=O)c3ccc(NC(=O)C4CCCCC4)cc3)nc2s1, the Potency was inconclusive: 89.1 µM [inhibitor, partial curve, poor fit].
